In the RNAGym collection of RNA variant scans (doi:10.1093/nar/gkz1192):
Read counts are not given, so values of variants with three or more changes are uncertain.

B1: CPEB3 Ribozyme (parent)
chain: UAACAGGGGGCCACAGCAGAAGCGUUCACGUCGCAGCCCCUGUCAGAUUCUGGUGAAUCUGCGAAUUCUGCUGUAUAUCUC

Variants of: B1
Assay: self-cleavage, relative activity (ratio to wild type); higher = more cleavage; in vitro, sequencing
Summary of the method: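 After error-prone PCR and barcoding, CPEB3 ribozyme mutant libraries were transcribed with T7 RNA polymerase at 37°C for 5 hours, then given 15 min with DNase I before an EDTA stop, and they cleaved during both steps. Reverse transcription with template switching preceded Illumina sequencing. Relative activity divides a variant's cleaved/total read fraction by the unmutated ribozyme's. At least 5 reads were required per variant, and three batches were averaged.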

Variant | self-cleavage
U1A A2C A47G | 1.06
U1A A2C A47G U60C | 0.26
U1A A2C U25C U51A U67A U69A | 0.07
U1A A2G A5C A47G A56G U69A U80A | 0.25
U1A A2G A13G U41C A45G U54C | 0.29
U1A A2G A18G U54C U60C A64G U69C | 0.14
U1A A2G A18U U80C | 0.32
U1A A2G C34U C40U G46A | 0.09
U1A A2G G22A A35G U41A G61A | 0.1
U1A A3C A57G C79U | 1.21
U1A A3G A35U A56G | 0.67
U1A A3G A45U A47G U80C | 0.72
U1A A3G C11G U66C | 0.4
U1A A3G C39A A77G | 0.54
U1A A3G G9A A28G U60G U72C U74A | 0.06
U1A A3G U25C U48C U49C C59U | 0.19
U1A A3G U41G C59A U66C | 0.2
U1A A5G A13G A15G U25C G33A U54A | 0.15
U1A A5G A15G A21G U31C A45U U76G | 0.04
U1A A5G A20G U25A A64U | 0.14
U1A A5G A45U C62U U76C | 0.24
U1A A5G A56G A65G U72C | 0.35
U1A A5G U41C A56G U60A | 0.28
U1A A5U A20U U67C | 0.27

Variant | self-cleavage
U1A A5U C29U A57G A77G | 0.26
U1A A13C U25C A35U U41A U67G U76C | 0.1
U1A A13G A64G U69C | 0.33
U1A A13G C37U U43A A64U | 0.17
U1A A13G U25C A45U | 0.26
U1A A13G U25C C39A U51A | 0.25
U1A A13G U26A | 0.44
U1A A13G U76A | 0.65
U1A A13G U80A | 1.01
U1A A13U A18G G33A U67C U69C A75G | 0.06
U1A A13U A56U A75G | 0.48
U1A A13U G22U G63A A64G A75G | 0.13
U1A A13U U26A C29U U69C | 0.26
U1A A13U U31C G46U U51G A77U | 0.13
U1A A13U U49A | 0.78
U1A A15G A28G | 0.48
U1A A15G U31C G42A | 0.33
U1A A15G U51C | 0.81
U1A A15U A21G C34A A35G U74A | 0.25
U1A A15U A35U A45C C59U A77G | 0.1
U1A A15U A45C C59U | 0.3
U1A A15U C23U A28U A56G U76A | 0.06
U1A A15U G19U U41C | 0.12
U1A A15U G24C U49A U74C | 0.13

Variant | self-cleavage
U1A A18U U54C A57G U67C U69A | 0.16
U1A A20G C27U | 0.26
U1A A20G C29A | 0.42
U1A A20G C29A C34U A64G | 0.4
U1A A20G U25C A57G | 0.09
U1A A20U U51C | 0.45
U1A A21C U60C U78A | 0.02
U1A A21G C29A | 0.13
U1A A21G U25A A45U A56G U72G U74A | 0.07
U1A A21G U25C C50U A65G A77U | 0.05
U1A A21G U60C A65G U72C U74C | 0.1
U1A A21U U80C | 0.64
U1A A28G A45U U80A | 0.25
U1A A28G A65G | 0.23
U1A A28G U31A U58G U72C | 0.2
U1A A28G U49C U80A | 0.27
U1A A28U C38U A56G A64G | 0.1
U1A A35G U66C U69C | 0.57
U1A A35G U74C | 1.24
U1A A35U G46U | 0.07
U1A A45G A47G C59A C62U | 0.07
U1A A45G U58C C79U | 0.26
U1A A47G U58C U74C U76C | 1.27
U1A A47G U58C U76A | 1.09

Variant | self-cleavage
U1A A47G U74C | 1.21
U1A A56G U72A | 0.39
U1A A56U U69A | 0.25
U1A A57G U60C U69C U72C | 0.18
U1A A64G U67C | 0.27
U1A A64U A77G | 0.28
U1A A65G U78C | 0.2
U1A A65U U66G | 0.51
U1A C11U A18G U48A A56G U69A | 0.07
U1A C11U A20G A21G G70A | 0.06
U1A C23U A35G U66C A77G | 0.47
U1A C23U U26C A35G A64U U69A U78A | 0.05
U1A C29A U78C | 0.22
U1A C29U U49C U60C U72A | 0.15
U1A C37G U48C A57G U58C U69C U72C | 0.03
U1A C37U G46U | 0.17
U1A C38G A47G C59A U69A A77U U80A | 0.07
U1A C39A U49G | 0.26
U1A C71A U78C | 0.23
U1A G6A A57G U58A U74C | 0.1
U1A G6A U26C C40U G63A | 0.17
U1A G8A U41C | 0.12
U1A G9A A18G A56G A57G | 0.07
U1A G9A C27G A35G A45G A56U | 0.06

Variant | self-cleavage
U1A G9C U26A C71U | 0.08
U1A G9U U43C A57U A64G C71U | 0.08
U1A G10U A21G U31C | 0.1
U1A G16A U51G A56U | 0.14
U1A G16C A45G U51C U72A | 0.18
U1A G24C U41A U76C | 0.16
U1A G30C A35U U43C C44A U80C | 0.1
U1A G36C A45U | 0.26
U1A G42U U66G G70A | 0.16
U1A U25A C34U | 0.08
U1A U25A U26C U78C U80A | 0.12
U1A U25C C37U | 0.11
U1A U25C G46A A64U | 0.2
U1A U25C U60C U78C | 0.09
U1A U26A C62A | 0.26
U1A U26A U41A A56G | 0.08
U1A U26A U43C | 0.24
U1A U26C A35G G55A U60A | 0.23
U1A U26C U43C U80A | 0.83
U1A U31A U48C | 0.16
U1A U31C G33A C71A | 0.15
U1A U31C G36A U58A C62G | 0.15
U1A U41A A45G U51A | 0.06
U1A U41A A47G U54C U60A U66C | 0.09

Variant | self-cleavage
U1A U41C A45C | 0.52
U1A U41C A47G U48C G61A U67C U78C | 0.08
U1A U43A U66C | 0.44
U1A U43C A45G | 0.66
U1A U43C A45U | 0.28
U1A U43C U76A | 0.33
U1A U49C A57U U60C | 0.14
U1A U51G G52A G53A G55A U80G | 1.14
U1A U54A A65G U78C | 0.4
U1A U54C U66C U80C C81G | 0.22
U1A U54G U72C | 0.79
U1A U60C C62U | 0.22
U1C A2C A5G G7A A21U C39U U67C | 0.21
U1C A2C A47G U66C U78A | 0.04
U1C A2G A13U U26C A28G | 0.28
U1C A2G A15U A20G C38G A64U A75G | 0.06
U1C A2G A18U A28U C29A U41A U72C | 0.09
U1C A2G A45G A56U | 0.07
U1C A2G U54C U69A U80C | 0.45
U1C A2G U72C | 0.86
U1C A2U A5U | 0.91
U1C A2U A13G | 0.8
U1C A2U A65G U78A | 0.18
U1C A2U G7C U49A | 0.52

Variant | self-cleavage
U1C A2U U25C A28G C32U C40U U43C | 0.05
U1C A2U U41C A45U A65G U74C U80C | 0.33
U1C A2U U43A | 1.12
U1C A3G A13G U25C U54C | 0.56
U1C A3G A18G U51A U80A | 0.92
U1C A3G A21G C29U G33C A47G U54C | 0.05
U1C A3G A35U G36A U41C | 0.7
U1C A3G C14U C34U U58C | 0.06
U1C A3G U25G A28G U51A | 0.03
U1C A3G U26G A28G U54G | 0.59
U1C A3G U48C U72C | 0.12
U1C A3U A5U A18G C23U A77U C81U | 0.1
U1C A3U C12U A56G A57G | 0.52
U1C A5G A13G A18G | 0.65
U1C A5G A15U A28G U58C | 0.07
U1C A5G A18U C50U A57U | 0.08
U1C A5G A57G U67A | 0.09
U1C A5G C17U G30A U60A | 0.08
U1C A5G G8U U25C U43A U49C U51C | 0.04
U1C A5G U26C U41C G42C | 0.09
U1C A5G U72C | 0.47
U1C A5U A45G U51A U69A U80A | 0.21
U1C A5U C32U U51A A64G U69C | 0.11
